Among all 280,000 compounds or so, about 1,100 (0.39%) were called active. The inconclusive results got no clear call from the source; some entries with a clear call stand among them for comparison. Calls come from the whole dose curve; as a rule, active = well fitted inhibition curve with a large enough effect; inconclusive = small, poorly fitted or top-dose-only effect, or effect the other way; inactive = flat fitted curve, though single readings scatter. No potency is given beside an inconclusive call; the fits are too rough.
biological target: Microtubule-associated protein tau (Homo sapiens) (UniProt P10636); assay: qHTS for Inhibitors of Tau Fibril Formation, Fluorescence Polarization; conditions: K18 P301L tau heparin fibrillization, Alexa594 FP, 6 h; series mostly up to 57.7 µM; note: nearly all actives have a fitted effect of over 55% in size
Outline: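 Compound effects on tau fibrillization are measured by Alexa 594 fluorescence polarization (ex 555, em 632 nm). K18 P301L tau is used at 15 uM with 0.24 uM labeled tracer, and 20 uM heparin induces aggregation over 6 hr at 37 C.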
Potency is the fitted concentration of half-maximal effect; tags give direction and shape of the fitted curve.

UniProt P10636, sequence (P10636 whole entry, looked up): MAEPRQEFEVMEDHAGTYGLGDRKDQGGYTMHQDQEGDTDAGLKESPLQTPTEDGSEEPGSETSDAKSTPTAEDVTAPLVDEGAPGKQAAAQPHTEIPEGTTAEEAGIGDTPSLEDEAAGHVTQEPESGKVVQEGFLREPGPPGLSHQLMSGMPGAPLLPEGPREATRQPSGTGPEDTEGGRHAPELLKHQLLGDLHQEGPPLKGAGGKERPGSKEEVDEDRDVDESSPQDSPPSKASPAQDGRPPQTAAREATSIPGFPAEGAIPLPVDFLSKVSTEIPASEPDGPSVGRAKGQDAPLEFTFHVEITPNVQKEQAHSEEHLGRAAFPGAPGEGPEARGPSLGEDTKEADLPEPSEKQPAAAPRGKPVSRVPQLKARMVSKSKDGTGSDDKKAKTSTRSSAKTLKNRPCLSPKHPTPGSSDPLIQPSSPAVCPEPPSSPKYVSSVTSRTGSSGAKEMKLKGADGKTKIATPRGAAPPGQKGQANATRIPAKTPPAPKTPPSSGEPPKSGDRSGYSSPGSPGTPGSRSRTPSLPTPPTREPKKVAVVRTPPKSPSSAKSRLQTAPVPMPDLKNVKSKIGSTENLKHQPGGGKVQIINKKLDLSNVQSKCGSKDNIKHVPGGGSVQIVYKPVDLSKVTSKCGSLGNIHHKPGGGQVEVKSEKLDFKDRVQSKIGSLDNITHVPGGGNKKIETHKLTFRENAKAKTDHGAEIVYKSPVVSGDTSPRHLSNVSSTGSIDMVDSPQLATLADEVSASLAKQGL

| SMILES | Potency |
| --- | --- |
| Cn1cccc1C(=O)NC(=O)COC(=O)c1ccccc1Sc1ccccc1C#N | inconclusive [inhibitor, partial curve, poor fit] |
| CNC(=S)N/N=C/c1cn(CCOc2ccccc2OC)c2ccccc12 | inconclusive [activator, partial curve] |
| CCOc1ccccc1NC(=O)Cn1c(=O)n(Cc2ccccc2)c(=O)c2c(C)c(C)sc21 | inconclusive [inhibitor, single point] |
| O=C(Nc1nc2n(n1)C(c1ccccc1)C=C(c1ccccc1)N2)c1ccc(Cl)c([N+](=O)[O-])c1 (centres undefined) | inactive |
| COc1cccc(-c2ccc3c(N)c(C(=O)c4ccc(Cl)cc4)sc3n2)c1 | inconclusive [inhibitor, partial curve, poor fit] |
| COc1cccc(Cn2cccc(NC(=O)NC3CCCCC3)c2=O)c1 | inactive |
| CCOC(=O)c1cc(NC(=O)Nc2ccccc2Cl)c(C)nc1C | inconclusive [inhibitor, single point] |
| CCOC(=O)c1c(C)[nH]c(C2=NNC(=Nc3cccc(Cl)c3)SC2)c1C | inconclusive [inhibitor, full curve] |
| C=CCOC(=O)C1=C(C)OC(N)=C(C#N)C1c1ccccc1F (centres undefined) | inactive |
| COc1cc(NC(=O)c2nnn(Cc3ccc(SC)cc3)c2N)cc(OC)c1 | inconclusive [inhibitor, partial curve] |
| CC(C)OCCCn1c(=S)[nH]c2ccc(N3CCOCC3)cc2c1=O | inactive |
| COc1ccc(CCNC(=O)CN(C)S(=O)(=O)c2cccs2)cc1OC | inactive |
| COc1ccc(CNc2ccc3cn[nH]c3c2)c(OC)c1OC | inconclusive [inhibitor, full curve] |
| Cc1ccc(CNC(=O)c2ccc(-n3cccc3)cc2)cc1 | inconclusive [inhibitor, full curve] |
| COc1cccc(N=C2C(=O)N3CCCc4cccc2c43)c1 | inactive |
| O=C(N/N=C/c1cccs1)c1cc(-c2ccc3ccccc3c2)n[nH]1 | inconclusive [inhibitor, partial curve] |
| O=S(=O)(c1ccc2oc(=S)[nH]c2c1)N1CCCCC1 | inactive |
| Cc1ccc2c(c1)c1ccc3c(c1n2C)C(=O)C=CC3=O | inconclusive [inhibitor, single point] |
| COc1cccc(C(=O)Nc2cc3c(cc2C(=O)c2ccc(C)cc2)OCCO3)c1 | inconclusive [inhibitor, full curve] |
| CCCNS(=O)(=O)c1ccc(OCC(=O)Nc2ccccc2F)cc1 | inactive |
| COc1ccc2c(c1)CC(C(=O)NCCCN1CCN(c3ccc(F)cc3)CC1)CO2 (centres undefined) | inactive |
| CCN(CC)S(=O)(=O)c1ccc(N/N=C/c2ccc(O)cc2)nc1 | inconclusive [activator, partial curve] |
| CCCC(=O)Nc1nc2ccc(NC(=O)c3ccccc3F)cc2s1 | inconclusive [inhibitor, single point] |

| SMILES | Potency |
| --- | --- |
| CCSC1=C(C#N)C(c2ccccc2Cl)C(C(=O)c2cccs2)C(O)(C(F)(F)F)N1 (centres undefined) | inactive |
| CC(=O)c1ccc(NC2c3ncccc3C(=O)N2Cc2ccc(F)cc2)cc1 (centres undefined) | inconclusive [inhibitor, full curve, poor fit] |
| CCCCN(C(=O)Cn1nnc2ccccc21)C(C(=O)NCc1ccco1)c1ccncc1 (centres undefined) | inconclusive [inhibitor, partial curve] |
| Cc1ccc(SCC(=O)Nc2ccc(-c3nc4ccccc4[nH]3)cc2)cc1 | inconclusive [inhibitor, partial curve, poor fit] |
| Cc1cc(N2CCOCC2)nc(-c2ccccc2O)n1 | inconclusive [inhibitor, single point] |
| CCOC(=O)c1cc2c(nc1N)CCCC2 | inactive |
| Cc1cc(Nc2cccc(Cl)c2)nc2ccc(NC(=O)c3cccnc3)cc12 | inactive |
| CCOC(=O)c1cnc2nc(SC)nn2c1N | inconclusive [inhibitor, partial curve] |
| O=C(N/N=C/c1sc(N2CCOCC2)nc1-c1ccccc1)c1ccc(O)cc1 | inconclusive [activator, full curve, poor fit] |
| CCN1CCN(C(=S)c2ccc(Cl)cc2)CC1 | inconclusive [inhibitor, partial curve] |
| N#Cc1cccc(-n2nnnc2-c2ccc3c(c2)OCO3)c1 | inactive |
| CCC(=O)c1ccc(N2CCCCCC2)c(F)c1 | inactive |
| Cc1ccc(NC(=O)C(=O)NCC2(c3ccccc3)CCCC2)cc1Cl | inconclusive [inhibitor, single point] |
| Cc1ccc(NC(=O)CSc2nc3n[nH]c(C)c3c(=N)n2-c2cccc(C)c2)cc1 | inconclusive [inhibitor, single point] |
| CN1CCN(C(=O)Nc2cccc(-c3ccccc3)c2)CC1 | inactive |
| COc1ccc(N2CCN(c3oc(/C=C/c4cc(OC)c(OC)c(OC)c4)nc3C#N)CC2)cc1 | inconclusive [activator, partial curve] |
| COc1cc(C(=O)Nc2ccc3oc(-c4ccc(C)c(Br)c4)nc3c2)cc(OC)c1OC | inconclusive [inhibitor, partial curve] |
| CN(C)S(=O)(=O)c1cccc(-n2sc3ccccc3c2=O)c1 | inconclusive [inhibitor, partial curve, poor fit] |
| Cc1cc(C)c2c(CC(=O)Nc3c(C(=O)Nc4ccc(Cl)cc4)oc4ccccc34)coc2c1 | inconclusive [inhibitor, partial curve] |
| Cc1ccc(Cl)cc1NC(=O)CSC(N)=O | inconclusive [inhibitor, partial curve] |
| COc1ccc(Nc2cc(C(=O)NCc3ccccc3OC)c3ccccc3n2)cc1 | inconclusive [activator, full curve, poor fit] |
| COc1cccc(C2C(C(C)=O)=C(O)C(=O)N2CCNCCO)c1 (centres undefined) | inactive |
| COc1ccc(CNS(=O)(=O)c2ccc3c(c2)CCN3C(=O)C2CC2)cc1 | inconclusive [inhibitor, full curve] |

| SMILES | Potency |
| --- | --- |
| O=C(C1CCCO1)N1CCN(C(=S)Nc2ccccc2C(F)(F)F)CC1 (centres undefined) | inconclusive [inhibitor, partial curve, poor fit] |
| COc1cc(/C=C2\SC(c3ccc(C)cc3)=NC2=O)cc(OC)c1OC | inconclusive [inhibitor, partial curve] |
| Nn1cnnc1N/N=C/c1ccc(Cl)c([N+](=O)[O-])c1 | inconclusive [inhibitor, single point] |
| COC(=O)C1=C(C)N(Cc2ccc(C)cc2)C(=O)/C1=C\c1ccc(O)c(OC)c1 | inconclusive [inhibitor, single point] |
| COc1cc(-c2nnc(SCC(=O)NCc3ccccc3Cl)o2)cc(OC)c1OC | inactive |
| O=C(CN1CCCCC1)Nc1ccc(Br)cc1[N+](=O)[O-] | inactive |
| O=C1Nc2c(c(=O)[nH]c(=O)n2-c2ccccc2)C1(NS(=O)(=O)c1ccc(Cl)cc1)C(F)(F)F (centres undefined) | inactive |
| Nc1nnc(-c2cn(-c3ccccc3)nc2-c2ccc(Cl)cc2)o1 | inconclusive [inhibitor, partial curve] |
| CC(C)c1ccc(NC(=O)c2cc(S(=O)(=O)NCC3COc4ccccc4O3)ccc2F)cc1 (centres undefined) | inconclusive [inhibitor, partial curve] |
| COC(=O)c1sccc1NC(=O)c1ccc2c(c1)OCO2 | inactive |
| Cc1ccc(/C=C/C(=O)Nc2nc3ccccc3[nH]2)cc1 | inconclusive [inhibitor, single point] |
| Cc1ccccc1NC(=O)Nc1nnc(CC(=O)NCc2ccccc2)s1 | inconclusive [inhibitor, full curve, poor fit] |
| Cc1cccc(CNS(=O)(=O)c2ccc3[nH]c(=O)ccc3c2)c1 | inactive |
| COc1cc(/C=C(/C#N)c2nc3ccccc3[nH]2)ccc1OC(=O)c1ccco1 | inconclusive [inhibitor, single point] |
| Cc1cc(OC(C)C)nc(-c2ccccc2O)n1 | inconclusive [inhibitor, partial curve] |
| N#CC1=C2SCN(Cc3ccccc3)CN2C(=O)CC1c1cccs1 (centres undefined) | inconclusive [inhibitor, partial curve] |
| O=C(Nc1cccc(-c2csc(-c3ccccc3)n2)c1)c1cccs1 | active: 14.1 µM |
| COCCNC(=O)c1c[nH]c2ccc(S(=O)(=O)N3CCc4ccccc43)cc2c1=O | inconclusive [inhibitor, partial curve] |
| CCCCC(=O)Nc1ccc(C(=O)Nc2cc(C(F)(F)F)ccc2Cl)cc1 | inconclusive [inhibitor, partial curve] |
| CC(=O)Nc1ccc(N(C)C)cc1[N+](=O)[O-] | inconclusive [activator, single point] |
| Nc1nonc1-n1nnc(C(=O)N/N=C/c2cccc(Cl)c2)c1CSc1ccccc1 | inconclusive [inhibitor, partial curve] |
| CCOc1ccc(C(=O)Nc2cccc(NC(=O)c3ccco3)c2)cc1Cl | inconclusive [inhibitor, single point] |
| CC(=O)N1CCn2c3c(c(=O)c4cc(C)ccc42)CCC31 (centres undefined) | inconclusive [inhibitor, single point] |
